Among all 310,000 compounds or so, about 14,000 (4.5%) showed an effect of 50% or more. The effect is printed as a negative number. This is one part of the list.
Each molecule was assayed against human ether-à-go-go-related gene (hERG) potassium channel (human, UniProt Q12809) (assay: primary screen, population patch clamp on CHO cells stably expressing hERG).
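Note: peak tail current of the secondary pulse compared with the same well before compound.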

Chain of human ether-à-go-go-related gene (hERG) potassium channel (Q12809 whole entry, looked up): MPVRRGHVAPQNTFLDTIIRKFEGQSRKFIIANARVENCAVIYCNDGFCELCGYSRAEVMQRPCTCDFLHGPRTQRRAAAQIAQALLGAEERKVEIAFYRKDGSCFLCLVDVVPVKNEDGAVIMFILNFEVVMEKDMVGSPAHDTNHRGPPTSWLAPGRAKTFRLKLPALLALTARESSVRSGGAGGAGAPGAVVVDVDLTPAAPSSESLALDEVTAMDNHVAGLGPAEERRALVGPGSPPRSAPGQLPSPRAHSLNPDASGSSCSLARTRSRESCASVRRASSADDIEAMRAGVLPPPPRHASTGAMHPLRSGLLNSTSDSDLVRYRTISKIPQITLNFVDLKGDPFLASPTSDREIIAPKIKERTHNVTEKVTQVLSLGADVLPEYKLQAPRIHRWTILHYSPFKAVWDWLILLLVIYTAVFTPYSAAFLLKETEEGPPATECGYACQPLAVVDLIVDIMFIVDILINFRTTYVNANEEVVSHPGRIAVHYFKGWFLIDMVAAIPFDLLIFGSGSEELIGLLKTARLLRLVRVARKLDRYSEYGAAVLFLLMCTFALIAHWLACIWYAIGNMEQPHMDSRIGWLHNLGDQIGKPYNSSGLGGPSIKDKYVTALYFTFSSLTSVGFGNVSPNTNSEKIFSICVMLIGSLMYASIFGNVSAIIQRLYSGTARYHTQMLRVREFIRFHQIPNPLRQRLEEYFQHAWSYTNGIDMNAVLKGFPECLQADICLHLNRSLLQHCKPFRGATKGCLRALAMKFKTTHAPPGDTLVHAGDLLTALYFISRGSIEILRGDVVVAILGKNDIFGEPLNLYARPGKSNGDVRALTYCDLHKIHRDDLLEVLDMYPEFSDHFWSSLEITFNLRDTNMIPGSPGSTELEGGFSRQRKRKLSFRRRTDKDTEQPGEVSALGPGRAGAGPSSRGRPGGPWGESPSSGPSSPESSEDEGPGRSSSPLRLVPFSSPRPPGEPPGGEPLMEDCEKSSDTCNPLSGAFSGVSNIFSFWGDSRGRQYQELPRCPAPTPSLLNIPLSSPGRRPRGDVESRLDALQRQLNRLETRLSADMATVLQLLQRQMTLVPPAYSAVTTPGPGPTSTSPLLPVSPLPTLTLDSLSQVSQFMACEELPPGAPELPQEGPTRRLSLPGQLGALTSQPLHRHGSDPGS

Row | SMILES | hERG current change (%, negative = inhibition) at 10uM [%]
1 | C[C@@H](NC(=O)c1nc[nH]c1C(=O)N1CCN(C(=O)OC(C)(C)C)CC1)c1ccccc1 | 4.5
2 | CCOCCCNCc1cn(-c2ccc(F)cc2F)nc1-c1ccccc1C | -48
3 | O=C1Nc2ccccc2S/C1=C\C(=O)N1CCCC1 | 12.3
4 | O=C(NC1CCCCC1)N1CCC(n2cnc3ccccc32)CC1 | 8.95
5 | O=C(/C=C/c1ccc(OCc2c(F)cccc2Cl)cc1)N1CCOCC1 | -30.1
6 | C[C@@H]1CN(C2CCN(Cc3nc(C(c4ccccc4)c4ccccc4)no3)CC2)C[C@H](C)O1 | -38.6
7 | Cc1cc(Cl)ccc1OC(C)C(=O)Nc1ccc(S(=O)(=O)N2CCOCC2)cc1 (centres unmarked) | 8.13
8 | O=C(Nc1nnc(Cc2ccc([N+](=O)[O-])cc2)s1)Nc1ccccc1F | 22.9
9 | COc1cc(/C=N/NC(=O)c2nnn(-c3nonc3N)c2C(C)C)ccc1OCc1ccc(F)cc1 | 31.1
10 | Cc1ccc2c(CC(=O)NCc3ccco3)coc2c1C | -9.09
11 | CC(=O)Nc1c(O)nc(SCC(=O)Nc2c(C)cccc2C)[nH]c1=O | 1.63
12 | O=C(COC(=O)c1cc(Cl)ccc1Cl)NCCN1C(=O)CSC1=O | 8.32
13 | Cc1nc(C(=O)NCC(=O)c2ccc(Cl)cc2)c(C(F)(F)F)o1 | 3.44
14 | CSc1nnc(C)c(=O)n1COC(=O)COc1ccc(Cl)cc1Cl | -8.5
15 | COc1cc(S(=O)(=O)NCc2ccc3c(c2)OCO3)ccc1F | -0.02
16 | COc1ccc(C2C=C(C34CC5CC(CC(C5)C3)C4)NC(=S)N2)cc1OC (centres unmarked) | -26.4
17 | COC(=O)C(C)Sc1ccc2nnc(-c3ccc(F)cc3)n2n1 (centres unmarked) | -27
18 | O=C(N/N=C1\CC(c2ccccc2)Oc2ccccc21)c1ccc(O)cc1 (centres unmarked) | 12.4
19 | Cc1ccc(NC(=O)C(=O)c2c(-c3ccccc3)cc3ccccn23)cc1S(=O)(=O)N1CCOCC1 | -16.7
20 | Clc1ccc(-c2cn3c(n2)-c2ccccc2C3)cc1Cl | 5.44
21 | CCOc1ccc(Cl)cc1S(=O)(=O)NCc1cccnc1 | -10.6
22 | Cc1cc(C)c(S(=O)(=O)NCc2cn3ccccc3n2)c(C)c1 | 4.96
23 | CC(Oc1cc2oc(=O)c3c(c2cc1Cl)CCCC3)C(=O)NCc1ccncc1 (centres unmarked) | -41.8

From paper PMC4336329 (PLoS ONE, 2015)
